Results taken from PMC4856097.
These are yes or no findings as the source states them, for the method shown. For part of these data: Binding seen in cells or lysates may run through a third protein. Some results given as binding are weak or reduced against the parent protein; the word gives no strength. For part of these data: Tags and fused reporters may be left off the sequences shown.

Sequences of proteins named here, by UniProt entry; tags and fusion partners are left off.
UniProt P08964: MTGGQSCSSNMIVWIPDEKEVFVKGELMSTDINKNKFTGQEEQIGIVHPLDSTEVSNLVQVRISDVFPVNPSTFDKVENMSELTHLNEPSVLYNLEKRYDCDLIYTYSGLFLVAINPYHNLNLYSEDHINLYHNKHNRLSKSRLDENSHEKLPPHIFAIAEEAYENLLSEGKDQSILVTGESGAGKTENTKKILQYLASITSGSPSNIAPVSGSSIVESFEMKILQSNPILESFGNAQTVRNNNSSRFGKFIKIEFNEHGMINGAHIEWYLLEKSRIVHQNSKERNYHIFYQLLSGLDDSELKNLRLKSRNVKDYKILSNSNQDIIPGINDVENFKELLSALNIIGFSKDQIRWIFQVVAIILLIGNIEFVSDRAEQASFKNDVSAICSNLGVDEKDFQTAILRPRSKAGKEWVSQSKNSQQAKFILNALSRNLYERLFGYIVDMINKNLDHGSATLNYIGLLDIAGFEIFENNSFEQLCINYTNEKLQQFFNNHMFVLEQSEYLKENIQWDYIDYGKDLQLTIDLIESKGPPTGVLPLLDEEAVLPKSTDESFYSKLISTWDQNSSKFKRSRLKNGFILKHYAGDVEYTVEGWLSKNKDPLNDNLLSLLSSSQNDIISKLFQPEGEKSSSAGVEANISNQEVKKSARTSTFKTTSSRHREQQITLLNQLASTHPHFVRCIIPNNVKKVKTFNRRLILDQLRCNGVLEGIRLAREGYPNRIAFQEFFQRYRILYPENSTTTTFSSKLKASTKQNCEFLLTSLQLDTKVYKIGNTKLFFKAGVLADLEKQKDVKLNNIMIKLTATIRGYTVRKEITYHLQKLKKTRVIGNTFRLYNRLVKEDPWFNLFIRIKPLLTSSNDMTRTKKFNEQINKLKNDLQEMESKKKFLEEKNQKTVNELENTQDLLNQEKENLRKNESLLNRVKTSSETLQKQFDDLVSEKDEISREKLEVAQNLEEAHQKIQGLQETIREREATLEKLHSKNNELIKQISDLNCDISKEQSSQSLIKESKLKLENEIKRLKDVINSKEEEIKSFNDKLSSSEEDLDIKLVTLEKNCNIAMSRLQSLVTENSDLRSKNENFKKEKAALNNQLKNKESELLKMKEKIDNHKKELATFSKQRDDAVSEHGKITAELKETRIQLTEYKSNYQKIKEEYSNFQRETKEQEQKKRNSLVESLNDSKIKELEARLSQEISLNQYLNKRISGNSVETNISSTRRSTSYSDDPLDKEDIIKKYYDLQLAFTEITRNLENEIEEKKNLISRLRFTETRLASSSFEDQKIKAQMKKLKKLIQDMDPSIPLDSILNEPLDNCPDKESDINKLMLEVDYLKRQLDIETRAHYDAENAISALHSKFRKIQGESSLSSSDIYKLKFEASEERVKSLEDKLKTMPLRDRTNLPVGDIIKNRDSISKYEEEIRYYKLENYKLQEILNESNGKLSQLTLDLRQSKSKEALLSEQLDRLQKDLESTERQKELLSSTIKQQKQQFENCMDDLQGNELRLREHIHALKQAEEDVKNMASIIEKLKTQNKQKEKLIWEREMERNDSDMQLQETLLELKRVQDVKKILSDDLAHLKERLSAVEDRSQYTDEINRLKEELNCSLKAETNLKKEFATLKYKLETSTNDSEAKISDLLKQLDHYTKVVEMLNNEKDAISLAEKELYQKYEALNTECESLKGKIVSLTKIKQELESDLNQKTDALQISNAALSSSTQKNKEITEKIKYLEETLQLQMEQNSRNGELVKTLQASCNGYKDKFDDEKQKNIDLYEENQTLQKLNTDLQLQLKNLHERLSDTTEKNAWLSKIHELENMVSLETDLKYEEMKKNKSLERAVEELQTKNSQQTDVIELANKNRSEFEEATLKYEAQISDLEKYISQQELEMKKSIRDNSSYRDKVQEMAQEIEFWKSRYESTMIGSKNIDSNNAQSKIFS

B1: Fur4 fused to NubG (negative control prey) (protein, UniProt P05316 1-633)
chain: MPDNLSLHLSGSSKRLNSRQLMESSNETFAPNNVDLEKEYKSSQSNITTEVYEASSFEEKVSSEKPQYSSFWKKIYYEYVVVDKSILGVSILDSFMYNQDLKPVEKERRVWSWYNYCYFWLAECFNINTWQIAATGLQLGLNWWQCWITIWIGYGFVGAFVVLASRVGSAYHLSFPISSRASFGIFFSLWPVINRVVMAIVWYSVQAYIAATPVSLMLKSIFGKDLQDKIPDHFGSPNATTYEFMCFFIFWAASLPFLLVPPHKIRHLFTVKAVLVPFASFGFLIWAIRRAHGRIALGSLTDVQPHGSAFSWAFLRSLMGCMANFSTMVINAPDFSRFSKNPNSALWSQLVCIPFLFSITCLIGILVTAAGYEIYGINYWSPLDVLEKFLQTTYNKGTRAGVFLISFVFAVAQLGTNISANSLSCGTDMSAIFPKFINIKRGSLFCAAMALCICPWNLMATSSKFTMALSAYAIFLSSIAGVVCSDYFVVRRGYIKLTHIYSHQKGSFYMYGNRFGINWRALAAYLCGVAPCLPGFIAEVGAPAIKVSDGAMKLYYLSYWVGYGLSFSSYTALCYFFPVPGCPVNNIIKDKGWFQRWANVDDFEEEWKDTIERDDLVDDNISVYEHEHEKTFI
B2: Ost1 fused to NubG (negative control prey) (protein, UniProt P41543 23-476)
chain: AQYEPPATWENVDYKRTIDVSNAYISETIEITIKNIASEPATEYFTAFESGIFSKVSFFSAYFTNEATFLNSQLLANSTTAPGDDGESEIRYGIIQFPNAISPQEEVSLVIKSFYNTVGIPYPEHVGMSEEQHLLWETNRLPLSAYDTKKASFTLIGSSSFEEYHPPNDESLLGKANGNSFEFGPWEDIPRFSSNETLAIVYSHNAPLNQVVNLRRDIWLSHWASTIQFEEYYELTNKAAKLSKGFSRLELMKQIQTQNMRQTHFVTVLDMLLPEGATDHYFTDLVGLVSTSHAERDHFFIRPRFPIFGGWNYNFTVGWTNKLSDFLHVSSGSDEKFVASIPILNGPPDTVYDNVELSVFLPEGAEIFDIDSPVPFTNVSIETQKSYFDLNKGHVKLTFSYRNLISQVANGQVLIKYDYPKSSFFKKPLSIACYIFTALMGVFVLKTLNMNVTN
B3: Rpl5, full-length prey in expression vector BG1805 (His6-HA-3C-ZZ) (protein, UniProt P26321 1-297)
chain: MAFQKDAKSSAYSSRFQTPFRRRREGKTDYYQRKRLVTQHKAKYNTPKYRLVVRFTNKDIICQIISSTITGDVVLAAAYSHELPRYGITHGLTNWAAAYATGLLIARRTLQKLGLDETYKGVEEVEGEYELTEAVEDGPRPFKVFLDIGLQRTTTGARVFGALKGASDGGLYVPHSENRFPGWDFETEEIDPELLRSYIFGGHVSQYMEELADDDEERFSELFKGYLADDIDADSLEDIYTSAHEAIRADPAFKPTEKKFTKEQYAAESKKYRQTKLSKEERAARVAAKIAALAGQQ
B4: Bzz1, full-length prey in expression vector BG1805 (His6-HA-3C-ZZ) (protein, UniProt P38822 1-633)
chain: MSADLSIGNEIKDSFKETHKWVQNNLKWLKDIEQFYRERAKLEKDYSERLSRLSAEYFNKKSSTSVPISVGDTPTTTPGSIEAAGVVAWNEILSQTDMISKDHDQLSTDFENHVANQLSGLFTKLDMTLSKINGFNNDMVNKKDNIYHELEKAKKDYDEACSTMEMARNRYTKASNDRNKKKLDEKEMEMNKCKNEYLIKINQANRTKDKYYFQDVPEVLDLLQDVNEAKTLFLNDLWLKAASVENDLGANVSKRLQAANSVVKQNKPSLNTAIFIKHNLKNWKEPQDFVYKPSPVWHDDEKFAVPSSLEVEDLRIKLAKAENDYNSLQDKTQNELSKLSTLNKIKHEMKTNEDNINATKFYDTLKEYLNVVSPFTSHETLKLQAEVQIESIQNNVPEEYDLSTDNIDLSKTKKKSGIFSKFKHNILNVDSKPSSGGSTGNGNGGPLHITSLFNTSRRTRLGSAPNNAGEDSDNNSIRTTSTNNTKKTTQNSSDDGKNKVLYAYVQKDDDEITITPGDKISLVARDTGSGWTKINNDTTGETGLVPTTYIRISSAATVKANDRGPAPEVPPPRRSTLPVRTMEAIYAYEAQGDDEISIDPGDIITVIRGDDGSGWTYGECDGLKGLFPTSYCK
B5: Trx2, full-length prey in expression vector BG1805 (His6-HA-3C-ZZ) (protein, UniProt P22803 1-104)
chain: MVTQLKSASEYDSALASGDKLVVVDFFATWCGPCKMIAPMIEKFAEQYSDAAFYKLDVDEVSDVAQKAEVSSMPTLIFYKGGKEVTRVVGANPAAIKQAIASNV
B6: Ape2, full-length prey in expression vector BG1805 (His6-HA-3C-ZZ) (protein, UniProt P32454 53-952)
chain: NVMWKQSKLTPPRFVKIMNRRPLFTETSHACAKCQKTSQLLNKTPNREILPDNVVPLHYDLTVEPDFKTFKFEGSVKIELKINNPAIDTVTLNTVDTDIHSAKIGDVTSSEIISEEEQQVTTFAFPKGTMSSFKGNAFLDIKFTGILNDNMAGFYRAKYEDKLTGETKYMATTQMEPTDARRAFPCFDEPNLKASFAITLVSDPSLTHLSNMDVKNEYVKDGKKVTLFNTTPKMSTYLVAFIVAELKYVESKNFRIPVRVYATPGNEKHGQFAADLTAKTLAFFEKTFGIQYPLPKMDNVAVHEFSAGAMENWGLVTYRVVDLLLDKDNSTLDRIQRVAEVVQHELAHQWFGNLVTMDWWEGLWLNEGFATWMSWYSCNEFQPEWKVWEQYVTDTLQHALSLDSLRSSHPIEVPVKKADEINQIFDAISYSKGASLLRMISKWLGEETFIKGVSQYLNKFKYGNAKTEDLWDALADASGKDVRSVMNIWTKKVGFPVISVSEDGNGKITFRQNRYLSTADVKPDEDKTIYPVFLALKTKNGVDSSVVLSERSKTIELEDPTFFKVNSEQSGIYITSYTDERWAKLGQQADLLSVEDRVGLVADVKTLSASGYTSTTNFLNLVSKWNNEKSFVVWDQIINSISSMKSTWLFEPKETQDALDNFTKQLISGMTHHLGWEFKSSDSFSTQRLKVTMFGAACAARDADVEKAALKMFTDYCSGNKEAIPALIKPIVFNTVARVGGAENYEKVYKIYLDPISNDEKLAALRSLGRFKEPKLLERTLGYLFDGTVLNQDIYIPMQGMRAHQEGVEALWNWVKKNWDELVKRLPPGLSMLGSVVTLGTSGFTSMQKIDEIKKFFATKSTKGFDQSLAQSLDTITSKAQWVNRDRDVVNKYLKENGYY
B7: Fba1, full-length prey in expression vector BG1805 (His6-HA-3C-ZZ) (protein, UniProt P14540 1-359)
chain: MGVEQILKRKTGVIVGEDVHNLFTYAKEHKFAIPAINVTSSSTAVAALEAARDSKSPIILQTSNGGAAYFAGKGISNEGQNASIKGAIAAAHYIRSIAPAYGIPVVLHSDHCAKKLLPWFDGMLEADEAYFKEHGEPLFSSHMLDLSEETDEENISTCVKYFKRMAAMDQWLEMEIGITGGEEDGVNNENADKEDLYTKPEQVYNVYKALHPISPNFSIAAAFGNCHGLYAGDIALRPEILAEHQKYTREQVGCKEEKPLFLVFHGGSGSTVQEFHTGIDNGVVKVNLDTDCQYAYLTGIRDYVLNKKDYIMSPVGNPEGPEKPNKKFFDPRVWVREGEKTMGAKITKSLETFRTTNTL
B8: Tah11, full-length prey in expression vector BG1805 (His6-HA-3C-ZZ) (protein, UniProt P47112 1-604)
chain: MSGTANSRRKEVLRVPVIDLNRVSDEEQLLPVVRAILLQHDTFLLKNYANKAVLDALLAGLTTKDLPDTSQGFDANFTGTLPLEDDVWLEQYIFDTDPQLRFDRKCRNESLCSIYSRLFKLGLFFAQLCVKSVVSSAELQDCISTSHYATKLTRYFNDNGSTHDGADAGATVLPTGDDFQYLFERDYVTFLPTGVLTIFPCAKAIRYKPSTMATTDNSWVSIDEPDCLLFHTGTLLARWSQGMHTTSPLQIDPRANIVSLTIWPPLTTPISSKGEGTIANHLLEQQIKAFPKVAQQYYPRELSILRLQDAMKFVKELFTVCETVLSLNALSRSTGVPPELHVLLPQISSMMKRKIVQDDILKLLTIWSDAYVVELNSRGELTMNLPKRDNLTTLTNKSRTLAFVERAESWYQQVIASKDEIMTDVPAFKINKRRSSSNSKTVLSSKVQTKSSNANALNNSRYLANSKENFMYKEKMPDSQANLMDRLRERERRSAALLSQRQKRYQQFLAMKMTQVFDILFSLTRGQPYTETYLSSLIVDSLQDSNNPIGTKEASEILAGLQGILPMDISVHQVDGGLKVYRWNSLDKNRFSKLLQIHKSKQQD

biological target: Myo1p bait with iMYTH tag (Cub-LexA-VP16) integrated at the C-terminus (S. cerevisiae) (UniProt P08964); assay: two-hybrid; iMYTH NubG/I self-activation test: Myo1p L40 L2 strain transformed with control prey plasmids, serial dilutions spotted on SD–W and SD–WH

binding	Molecule
no binding	B1
no binding	B2

biological target: Myo1-TAP (TAP epitope fused to the Myo1p C-terminus) (S. cerevisiae) (UniProt P08964); assay: co-IP; Myo1-TAP captured from yeast lysate on calmodulin beads by its calmodulin-binding peptide (IPLB buffer with 1% Triton-X100, 2 hr at 4°, six washes); BG1805 prey detected by anti-HA western blot

binding	Molecule
binds	B3
binds	B4
binds	B5
binds	B6
binds	B7
binds	B8

biological target: Myo1-TAP (TAP epitope fused to the Myo1p C-terminus) (S. cerevisiae) (UniProt P08964); assay: as above; remark: another data set of the same source

binding	Molecule
binds	Act1p, ACT1 gene cloned in the prey plasmid BG1805 (His6-HA-3C-ZZ) (from UniProt P60010 1-375)
